According to PubChem BioAssay AID686978 (National Center for Advancing Translational Sciences (NCATS), 2013):
The campaign covered roughly 420,000 compounds. About 64,000 (15%) were called active. Inconclusive means that the source gave no clear call. Such entries were picked first, then a sample of the others. Calls come from the whole dose curve; as a rule, active = well fitted inhibition curve with a large enough effect; inconclusive = small, poorly fitted or top-dose-only effect; inactive = flat fitted curve, though single readings scatter. No potency is given beside an inconclusive call; the fits are too rough.

assay: qHTS for Inhibitors of human tyrosyl-DNA phosphodiesterase 1 (TDP1): qHTS in cells in absence of CPT; details: DT40 Tdp1-/- hTDP1 cells, no CPT, ATP luminescence, 48 h; activity change, negative = growth inhibition: at 46.2 µM (top of the series) unless noted; note: nearly all actives have a fitted effect of over 55% in size
Outline: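 No-CPT arm: Tdp1-/-;hTDP1 DT40 cells (400/well) plus compounds, incubated ≥48 hr at 37 °C. Readout CellTiter-Glo luminescence.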
% is set by controls: 0 for no effect and ±100 for the full control effect; potency is the fitted concentration of half-maximal effect; tags give direction and shape of the fitted curve.

Row | Compound | Potency | activity change, negative = growth inhibition
1 | COc1ccc(N2CCN(C(=O)CN3C(=O)NC(C)(C4CC4)C3=O)CC2)cc1 (stereo not drawn) | inactive | –
2 | COc1ccc(CN(CC(O)COc2cccc3[nH]cc(C)c23)C(C)(C)C)cc1 (stereo not drawn) | inconclusive [inhibitor, single point] | –
3 | CCOC(=O)[C@H]1[C@H]2COc3ccc(OC)cc3[C@@H]2N2C(=O)c3cc(F)c(F)cc3NC(=O)[C@@]12C | inconclusive [inhibitor, single point] | –
4 | CCN(CC)CCNC(=O)c1ccc2nc(CCc3ccccc3)oc2c1 | inconclusive [inhibitor, single point] | –
5 | NC(=S)Nc1ccc(C(F)(F)F)cc1Cl | inconclusive [inhibitor, partial curve] | –
6 | COC(=O)c1ccc(N=C2S/C(=C\c3cc(C)n(-c4cccnc4)c3C)C(=O)N2C)cc1 | active: 18.4 µM | –
7 | CN=Cc1nc(-c2ccccc2)oc1O | inactive | –
8 | CC(=O)c1ccc(NC(=O)c2ccc(COc3ccccc3[N+](=O)[O-])o2)cc1 | inconclusive [inhibitor, partial curve] | –
9 | CCc1ccccc1OCCCN1CCCC1 | inactive | –
10 | CCOC(=O)C(C(=O)OCC)C(C)C#CCN1CCCCC1 (stereo not drawn) | inactive | –
11 | COc1ccccc1/C=C/C(=O)c1cc(Br)ccc1OC(=O)c1ccco1 | inconclusive [inhibitor, single point] | –
12 | C[C@@H]1CC2=C(C(=O)OC(C)(C)O2)[C@H](c2ccc(Cl)cc2)O1 | inconclusive [inhibitor, single point] | –
13 | COc1ccc(CNC(=O)Cn2ncc3c([nH]c4ccccc43)c2=O)cc1 | inconclusive [inhibitor, single point] | –
14 | Cc1ccc(-c2ccc(C(=O)Nc3ccccc3)o2)c2ccccc12 | inconclusive [inhibitor, single point] | –
15 | Cc1cc(C)nc(SCc2ccc(C(=O)N/N=C/c3cccc(O)c3O)cc2)n1 | active: 5.8 µM | –
16 | CCOC(=O)C(=NCCCN(C)C)NNc1ccc(Br)cc1 | inconclusive [inhibitor, single point] | –
17 | COc1ccc(N2CC(C(=O)N3CCN(Cc4ccc5c(c4)OCO5)CC3)CC2=O)cc1 (stereo not drawn) | inconclusive [inhibitor, single point] | –
18 | COC(=O)c1ccccc1NC(=S)NC(=O)c1ccc2ccccc2c1 | inconclusive [inhibitor, partial curve] | –
19 | CCS(=O)(=O)c1nc(S(=O)(=O)c2ccc(C)cc2)c(N2CCCCCC2)s1 | inconclusive [inhibitor, single point] | –
20 | O=C(CN1CCN(S(=O)(=O)N2CCCCCC2)CC1)Nc1cc(Cl)ccc1Cl | inconclusive [inhibitor, partial curve] | –
21 | Cc1cccc(CCNC(=O)CCc2c(C)nc3c4c(C)cc(C)nc4nn3c2C)c1 | inactive | –
22 | CCOc1ccc(N(CC(=O)NCCc2ccccc2)C(=O)CCC(=O)Nc2cc(C)ccn2)cc1 | inconclusive [inhibitor, partial curve] | –
23 | CCN(CC(=O)Nc1ccccc1C(=O)OC)S(=O)(=O)c1ccccc1 | inconclusive [inhibitor, partial curve, poor fit] | –

Row | Compound | Potency | activity change, negative = growth inhibition
24 | Cc1ncc2c(c1CNC(=O)c1ccc3c(c1)OCO3)CCN(C(=O)c1cn3ccccc3n1)C2 | inactive | –
25 | Cc1ccc(-c2cc(NC=O)c3ncc(-c4cccc(C(=O)N(C)C)c4)n3c2)cc1 | inconclusive [inhibitor, single point] | –
26 | CC1=CC2=NC(=O)CC(C)(C(=O)N(CC(=O)NC3CCCC3)c3ccccc3C)N2C=C1 (stereo not drawn) | inconclusive [inhibitor, single point] | –
27 | Cc1cccc(N2CCN(S(=O)(=O)c3c(C(=O)N4CCCCC4)c(C)n(C)c3C)CC2)c1C | inconclusive [inhibitor, single point] | –
28 | COc1ccc(/C=C2\C(=O)N(Cc3ccc(F)cc3)CC(=O)N2Cc2ccccc2)cc1 | active: 25.9 µM | –
29 | CCCCn1nnnc1C(c1cc2ccccc2o1)N1CCN(CC(=O)NC(C)C)CC1 (stereo not drawn) | inconclusive [inhibitor, single point] | –
30 | COc1ccc(CNC(=O)c2ccc3oc(C(C)C)nc3c2)cc1 | inconclusive [inhibitor, single point] | –
31 | Cc1cccc(OCc2nnc(SCC(=O)N3c4ccccc4CC3C)n2C)c1C (stereo not drawn) | inconclusive [inhibitor, partial curve, poor fit] | –
32 | COc1ccc(C(CNC(=O)CSc2ccc(Br)cc2)N2CCOCC2)cc1 (stereo not drawn) | – | inconclusive: -32.8% [inhibitor]
33 | CCc1cccc(C)c1NC(=O)Cn1c(=O)cc(C)c2c(C)nn(-c3cccc(F)c3)c21 | inactive | –
34 | Cc1cc2cc(CNC(=O)CC(C)C)ccc2n1C | inactive | –
35 | COc1ccc(NC(=O)c2ccccc2-c2ccc(C(F)(F)F)cc2)cc1S(=O)(=O)N1CCOCC1 | inconclusive [inhibitor, single point] | –
36 | CNC(=O)/C(C#N)=C/c1c(N2CCN(c3cccc(Cl)c3)CC2)nc2c(C)cccn2c1=O | active: 11.6 µM | –
37 | O=C(COC(=O)CCC(=O)c1cccs1)NCc1ccccc1 | inactive | –
38 | Cc1ccc2nc(CCc3ccc(N)cc3)[nH]c2c1 | inactive | –
39 | CCOC(=O)C[C@@H]1OC[C@H](C)N1S(=O)(=O)c1ccc(C)cc1 | inconclusive [inhibitor, single point] | –
40 | C=CCn1c(SCc2c(C)noc2C)nc2cc(C(=O)O)ccc2c1=O | inconclusive [inhibitor, single point] | –
41 | O=[N+]([O-])c1ccc(N2CCN(S(=O)(=O)c3ccccc3)CC2)cc1N1CCc2ccccc2C1 | inactive | –
42 | CCOCCn1c(N2CCCC2)nc2c1c(=O)n(C)c(=O)n2C | inconclusive [inhibitor, single point] | –
43 | CC1(C(=O)Nc2ccc3c(c2)OCCO3)CCN1C(=O)c1ccccc1CCc1ccccc1 (stereo not drawn) | inconclusive [inhibitor, single point] | –
44 | COc1ccc(NC(=S)NC23CC4CC(CC(C4)C2)C3)cc1OC | inconclusive [inhibitor, single point] | –
45 | CCc1ccc(CN2CCCC(C(=O)Nc3ccc(-c4cscn4)cc3)C2)o1 (stereo not drawn) | inconclusive [inhibitor, single point] | –
46 | COc1cccc(N(CC(=O)Nc2ccc3c(c2)OCO3)S(=O)(=O)c2ccccc2)c1 | inconclusive [inhibitor, partial curve] | –

Row | Compound | Potency | activity change, negative = growth inhibition
47 | CCOC(=O)C1=C(C)NC2=C(C(=O)C(C(=O)OCC)C(c3ccccc3OC)C2)C1c1ccccn1 (stereo not drawn) | inconclusive [inhibitor, single point] | –
48 | COC(=O)c1ccccc1NC(=O)N1c2ccccc2CC1C (stereo not drawn) | inconclusive [inhibitor, partial curve] | –
49 | COCCN=C1Sc2nc3ccc(C)cc3cc2CN1Cc1ccco1 | inconclusive [inhibitor, single point] | –
50 | O=c1oc(-c2cccc(S(=O)(=O)N3CCOCC3)c2)nc2ccccc12 | inconclusive [inhibitor, single point] | –
51 | Cc1nn(-c2ccccc2)nc1CNC(=O)C(C)Cc1ccccc1 (stereo not drawn) | inconclusive [inhibitor, single point] | –
52 | CCC(C)(C)NC(=O)c1cc([N+](=O)[O-])ccc1N1CCCCC1 | inconclusive [inhibitor, partial curve, poor fit] | –
53 | O=C(NNC(=O)c1cccs1)c1ccccn1 | inconclusive [inhibitor, single point] | –
54 | CCn1c(SCC(=O)c2[nH]c(C)c(C(C)=O)c2C)nnc1-c1ccccc1 | active: 25.9 µM | –
55 | Cc1ccc(S(=O)(=O)NCC(=O)NCC(=O)OC(C(=O)NC(N)=O)C(C)C)cc1C (stereo not drawn) | inactive | –
56 | Cc1nc(CCNC(=O)CC2C(=O)NCCN2Cc2ccccc2)nc2c1CCC2 (stereo not drawn) | inactive | –
57 | Cn1c(=O)n(C)c2cc(S(=O)(=O)Nc3ccc(F)cc3)ccc21 | active: 20.6 µM | –
58 | O=C(COc1ccc(Cl)cc1)N1CCN(C(=O)c2cccc(F)c2)CC1 | inactive | –
59 | COc1ccc(CCNC(=O)COC(=O)COc2ccc(Cl)cc2)cc1OC | inactive | –
60 | COc1cccc(NC(=S)N(Cc2ccc(C)cc2)Cc2ccccn2)c1 | inactive | –
61 | C#CCN(C[C@H]1[C@H](OC(=O)NCc2ccco2)[C@H](OC(=O)NCc2ccco2)C[C@H]2C(=O)N(c3ccccc3)C(=O)[C@@H]12)S(=O)(=O)c1ccc(C)cc1 | inconclusive [inhibitor, single point] | –
62 | O=C(NCc1ccc(F)cc1)c1ccc(Nc2nc3ccccc3n3nnnc23)cc1 | active: 14.6 µM | –
63 | COc1ccc(-c2c(-c3cc(OC)cc(OC)c3)n(C)c3ccc(-c4ccc(S(N)(=O)=O)cc4)cc23)cc1 | active: 4.11 µM | –
64 | O=S(=O)(c1cnccc1N1CCN(CCO)CC1)N1CCCCC1 | inactive | –
65 | CCn1nnc2cc(C(=O)Nc3cc(Cl)ccc3C)ccc21 | inconclusive [inhibitor, single point] | –
66 | Nc1nnc(N)c2ccccc12 | inactive | –
67 | CC(C)N(Cc1cn(C)nc1-c1cccc(Cl)c1)CC1CCC(=O)N1 (stereo not drawn) | inconclusive [inhibitor, partial curve] | –
68 | COc1ccc(C(=O)NC(=S)NNC(=O)c2ccc(NC(C)=O)cc2)cc1Br | inconclusive [inhibitor, single point] | –
